{"source": "ChEMBL document CHEMBL4888484", "about": "“Replenishing the malaria drug discovery pipeline: Screening and hit evaluation of the MMV Hit Generation Library 1 (HGL1) against asexual blood stage Plasmodium falciparum ,using a nano luciferase reporter read-out” (2022)", "note": "About 540 (0.36%) of roughly 150,000 compounds showed an effect of 50% or more. The list shows a part of the results.", "data": [{"system": "Plasmodium falciparum", "test": "Primary screen in NF54 nanoGlo assay, in single point, at 2uM, 72h; a lower Z score goes with more inhibition", "type": "functional, Erythrocyte", "conditions": "timepoint 72 hour", "units": {"% Inhibition": "%"}, "values": [{"smiles": "Cc1[nH]c2ccc(OCC(=O)N(C)Cc3ccc(Cl)s3)cc2c1C", "% Inhibition": -5, "Z score": 0.97}, {"smiles": "CCn1nccc1CNc1ccc(CN2CCN(C)CC2)c(Br)c1", "% Inhibition": -1, "Z score": 0.14}, {"smiles": "Cc1c(C(c2ccc(-c3ccc(Cl)c(Cl)c3)o2)c2c(C)n(C)n(-c3ccccc3)c2=O)c(=O)n(-c2ccccc2)n1C", "% Inhibition": 3, "Z score": -0.5}, {"smiles": "O=C1NC(=O)N(Cc2ccccc2)[C@H]1c1cccs1", "% Inhibition": 5, "Z score": -0.76}, {"smiles": "Cc1cc(F)c(Br)cc1NCc1cncn1C", "% Inhibition": -37, "Z score": 4.34}, {"smiles": "Cc1noc(C)c1N(C)CC(=O)N1CCCC[C@@H]1C", "% Inhibition": -2, "Z score": 0.2}, {"smiles": "Cc1c([C@H](C)NC(=O)N2CC(C)S(=O)(=O)C(C)C2)oc2ccccc12", "note": "(stereo partly specified)", "% Inhibition": -5, "Z score": 0.68}, {"smiles": "Cc1cn(C)c(CC(=O)N2CCN(c3cccc(C(F)(F)F)c3)CC2)c1C(=O)O", "% Inhibition": 1, "Z score": -0.13}, {"smiles": "CCO[C@H]1COCC[C@@H]1NC(=O)c1ccc2c(c1)OCO2", "% Inhibition": -9, "Z score": 0.95}, {"smiles": "C[C@@H](C(=O)NCCCN(C)C1CCCCC1)n1nc(-c2ccccc2)c2cc(Cl)ccc21", "% Inhibition": -4, "Z score": 0.81}, {"smiles": "Cn1ccnc1-c1ccccc1C(=O)Nc1ccc(Oc2nnn[nH]2)cc1", "% Inhibition": 1, "Z score": -0.18}, {"smiles": "CN1CCc2[nH]cnc2C12CCN(C(=O)[C@@H]1COc3ccccc3C1)CC2", "% Inhibition": 0, "Z score": -0.01}, {"smiles": "COc1ccccc1CC(=O)c1ccc(O)c(CN2CCOCC2)c1O", "% Inhibition": -3, "Z score": 0.39}, {"smiles": "Cc1cccc(OCC(=O)N2CC[C@H](Oc3cnccn3)C2)c1", "% Inhibition": -13, "Z score": 1.53}, {"smiles": "COc1cc(C)ccc1OCc1nc(C(=O)NC2CCCC2)co1", "% Inhibition": 3, "Z score": -0.29}, {"smiles": "FC(F)(F)c1cccc(-c2cn[nH]c2[C@H]2CCCNC2)c1", "% Inhibition": -3, "Z score": 0.47}, {"smiles": "COc1ccccc1CNC(=O)c1cnn2c3c(cnc12)CCCC3", "% Inhibition": 31, "Z score": -4.49}, {"smiles": "CN(Cc1ccc(Cl)s1)C(=O)CNCCn1cccn1", "% Inhibition": -9, "Z score": 1.62}, {"smiles": "O=C(NCc1nc(C(F)(F)F)n[nH]1)[C@H]1CC12CC2", "% Inhibition": -12, "Z score": 1.86}, {"smiles": "COc1ccc(OC(C)C)c(NC(=O)N2CCO[C@H]3CN(C(=O)OC(C)(C)C)C[C@H]32)c1", "% Inhibition": -3, "Z score": 0.45}, {"smiles": "Cc1cccc([C@@H](NC(=O)c2cc(C)nc(C)n2)C2CC2)n1", "% Inhibition": -7, "Z score": 0.87}, {"smiles": "CN(C)C(=O)N1C[C@H]2CC[C@@H](C1)N(Cc1nnc(-c3ccccc3)o1)C2", "% Inhibition": -1, "Z score": 0.15}, {"smiles": "COCC(=O)N[C@H]1CCN(c2nccs2)C1", "% Inhibition": -8, "Z score": 1.6}, {"smiles": "CN(C)Cc1cc2n(n1)CCN(Cc1cnc(-c3cccs3)nc1)C2", "% Inhibition": -8, "Z score": 0.82}, {"smiles": "CCn1nc(-n2cnnc2)c(NS(=O)(=O)c2ccc(C)cc2)c1C", "% Inhibition": -9, "Z score": 1.53}, {"smiles": "COc1ccc(F)c(CN2CCC[C@@]3(CCN(C(=O)c4ccoc4)C3)C2=O)c1", "% Inhibition": -16, "Z score": 1.37}, {"smiles": "Cn1ccnc1C(O)C1CCCN(Cc2ccc(F)cc2C#N)C1", "note": "(stereo unspecified)", "% Inhibition": -2, "Z score": 0.23}, {"smiles": "CC(C)Cn1cncc1CNC(=O)CCc1ccc(F)cc1F", "% Inhibition": -5, "Z score": 0.94}, {"smiles": "O=c1c(CN[C@H]2CC[C@H](O)CC2)cc2ccc(F)cc2n1Cc1ccncc1", "% Inhibition": -1, "Z score": 0.13}, {"smiles": "CC(C)(CS(=O)(=O)NCc1ccno1)C(F)(F)F", "% Inhibition": -11, "Z score": 1.39}, {"smiles": "c1ccc(-c2nc(NCc3nnc(C4CC4)o3)c3ccccc3n2)cc1", "% Inhibition": -1, "Z score": 0.22}, {"smiles": "Cc1cc(C(F)(F)F)n(C[C@@H](C)CNC(=O)Nc2ccc3[nH]nnc3c2)n1", "% Inhibition": -4, "Z score": 0.57}, {"smiles": "Cc1noc2ncnc(NCCCN3CCOCC3)c12", "% Inhibition": -12, "Z score": 2.13}, {"smiles": "CO[C@H]1CCCN(C(=O)c2cnc(COc3ccc(C(C)(C)C)cc3)nc2O)C1", "% Inhibition": 0, "Z score": 0}, {"smiles": "Cc1ccc2[nH]c(=O)cc(C(=O)N3CC(=O)N(c4ccccc4C)C[C@@H]3C)c2c1", "% Inhibition": 0, "Z score": 0.07}, {"smiles": "CCn1c(=O)c(N2CCN(C(=O)Cc3ccc(OC)c(Cl)c3)CC2)nc2ccncc21", "% Inhibition": -13, "Z score": 1.25}, {"smiles": "COc1ccc(-c2[nH]ncc2C(=O)NC[C@@H]2CCCN3CCCC[C@H]23)cc1Cl", "% Inhibition": -15, "Z score": 1.86}, {"smiles": "Cc1cc(F)ccc1[C@H]1C(=O)NCCN1CCc1scnc1C", "% Inhibition": -9, "Z score": 1.57}, {"smiles": "C#CCN(Cc1nc(C)ccc1O)CC1CC1", "% Inhibition": -10, "Z score": 1.27}, {"smiles": "CCc1ccc(NC(=O)C2c3ccccc3C(=O)N(CCOC)C2c2cn(S(=O)(=O)c3ccccc3)c3ccccc23)cc1", "note": "(stereo unspecified)", "% Inhibition": 7, "Z score": -0.88}, {"smiles": "CN(CC=Cc1ccc(Br)cc1)CCO", "% Inhibition": -2, "Z score": 0.23}, {"smiles": "CN1CCC[C@@](O)(CN2CCN(Cc3ccc4c(c3)OCO4)C(=O)C2)C1=O", "% Inhibition": -13, "Z score": 2.01}, {"smiles": "CC(C)N1C(=O)C[C@H](NC(=O)C(=O)Nc2cc(-c3ccncc3)nn2C)C1=O", "% Inhibition": -8, "Z score": 1.32}, {"smiles": "C[C@H](NC(=O)C1CCC1c1ccc(F)cc1)C(=O)N1Cc2ccccc2C1", "note": "(stereo partly specified)", "% Inhibition": 1, "Z score": -0.15}, {"smiles": "CCc1noc(C)c1NC(=O)NC1CN(Cc2ccccc2)CC1C", "note": "(stereo unspecified)", "% Inhibition": -13, "Z score": 1.16}, {"smiles": "O=C(CCC1CCC1)Nc1cnccn1", "% Inhibition": -9, "Z score": 1.71}, {"smiles": "COCC1(NC(=O)c2ccc(-c3ncon3)cc2)CCOCC1", "% Inhibition": 5, "Z score": -0.9}, {"smiles": "N#Cc1c(F)cccc1N1CCCN(c2cccc(F)c2C#N)CC1", "% Inhibition": 2, "Z score": -0.24}, {"smiles": "COCCNC(=O)NCC[C@H](O)c1cccc(Cl)c1", "% Inhibition": -5, "Z score": 0.9}, {"smiles": "CS(=O)(=O)c1ccc(OC[C@@]2(CNS(=O)(=O)c3ccc(F)cc3)C[C@@H](O)[C@@H](O)C2)cc1", "% Inhibition": -10, "Z score": 1.55}, {"smiles": "CCCc1nc(CNC(=O)[C@H]2CCOc3ccccc3C2)cs1", "% Inhibition": -9, "Z score": 1.2}, {"smiles": "C[C@@H]1CN(C(=O)OC(C)(C)C)C[C@H](C)N1Cc1ccc(C(=O)N(C)C)[nH]1", "% Inhibition": -1, "Z score": 0.14}, {"smiles": "CN(C)CCN(C(=O)[C@H]1CCn2ccnc2C1)C1CCCC1", "% Inhibition": -5, "Z score": 0.7}, {"smiles": "CCN1CC[C@@]2(CCC1=O)CN(c1nc(-c3ccccc3)no1)CCN2C", "% Inhibition": -5, "Z score": 1.01}, {"smiles": "CC(=O)N1CCN(C(=O)[C@@H]2CC(=O)c3sc(NC(=O)CCC4CCCCC4)nc3C2)CC1", "% Inhibition": -16, "Z score": 2.2}, {"smiles": "CC(=O)NC1C2CCCN(c3ncc(Cl)s3)C2C1(C)C", "note": "(stereo unspecified)", "% Inhibition": -3, "Z score": 0.46}, {"smiles": "Cc1ncsc1CCc1nc(CC(N)=O)nn1CC(C)(C)O", "% Inhibition": -14, "Z score": 1.19}, {"smiles": "Cc1csc(NC(=O)[C@]2(C)Oc3ccccc3NC2=O)n1", "% Inhibition": 36, "Z score": -1.34}, {"smiles": "Cc1cc(C(=O)N[C@H]2CCN(c3nccn4cnnc34)C2)c(C)o1", "% Inhibition": 6, "Z score": -0.74}, {"smiles": "CC(=O)CN1C(=O)[C@@H]2CCCN2C(=O)c2ccccc21", "% Inhibition": -15, "Z score": 1.87}, {"smiles": "Cc1cccc(C2CCCN(C(=O)CC3(c4ccccc4F)CC(=O)N(C)C3=O)C2)c1", "note": "(stereo unspecified)", "% Inhibition": -1, "Z score": 0.19}, {"smiles": "Cc1cc(F)ccc1CNCc1cc(CC(C)C)no1", "% Inhibition": -12, "Z score": 1.56}, {"smiles": "Cc1cc(=O)c(C(=O)O)c(CCc2ccccc2)n1C[C@H]1CCCO1", "% Inhibition": 7, "Z score": -0.84}, {"smiles": "CC(=O)c1ncn(Cc2nc(-c3ccccc3Cl)oc2C)n1", "% Inhibition": 5, "Z score": -0.44}, {"smiles": "CCOc1ccc([C@@H]2C=C(c3cccnc3)Nc3nnnn32)cc1OC", "% Inhibition": -9, "Z score": 1.43}, {"smiles": "CCCN1CCC[C@H]1CNC(=O)c1nc(C)sc1Br", "% Inhibition": -4, "Z score": 0.5}, {"smiles": "CC(=O)N1CCC(CN(C)C(=O)NC(C)c2cc(C)c(F)c(C)c2)C1", "note": "(stereo unspecified)", "% Inhibition": 38, "Z score": -3.44}, {"smiles": "Cc1oc(C(C)C)cc1C(=O)N[C@H]1CCOC[C@@H]1OCC1CC1", "% Inhibition": -5, "Z score": 0.96}, {"smiles": "CC[C@H](OC)c1nc(Cc2ccc(OC)cc2)nn1CC(C)(C)O", "% Inhibition": -3, "Z score": 0.54}, {"smiles": "CC(C)(C#N)NC(=O)Cc1ccn(-c2ccccc2)n1", "% Inhibition": 1, "Z score": -0.11}, {"smiles": "O=C(Nc1ccc(F)cc1)c1nc(-c2cn(-c3ccc(F)cc3)nn2)no1", "% Inhibition": -1, "Z score": 0.21}, {"smiles": "Cc1ccc(-c2ccc(C(=O)N3[C@@H]4CC[C@H]3C[C@@H](O)C4)cc2)o1", "% Inhibition": -12, "Z score": 1.77}, {"smiles": "COc1ccc(Nc2cc(N[C@@H](CO)c3cnn(C)c3)ncn2)c(OC)c1", "% Inhibition": -13, "Z score": 1.7}, {"smiles": "CCC1(NC(=O)c2cc(-c3ccn(C)n3)on2)CCC1", "% Inhibition": -18, "Z score": 2.37}, {"smiles": "CN(CC(=O)NC1CCCCCCC1)Cc1cc[nH]n1", "% Inhibition": 0, "Z score": -0.03}, {"smiles": "C[C@H](OC(=O)CNC(=O)OC(C)(C)C)C(=O)N1CCCCCC1", "% Inhibition": -12, "Z score": 1.29}, {"smiles": "CC(C)CN(CC(=O)N[C@](C)(C#N)C1CC1)C1CC1", "% Inhibition": -16, "Z score": 2.11}, {"smiles": "COc1ccc(C(=O)N(CC(=O)N2CCc3sccc3[C@@H]2COc2ccc(C)cc2C)C(C)(C)C)cc1", "% Inhibition": -10, "Z score": 1.01}, {"smiles": "O=C(CC[C@@H]1NC(=O)N(Cc2ccccc2Cl)C1=O)NC1CCS(=O)(=O)C1", "note": "(stereo partly specified)", "% Inhibition": -3, "Z score": 0.49}, {"smiles": "CC[C@H](OC)c1nc(CCOC)nn1CC(=O)O", "% Inhibition": -2, "Z score": 0.22}, {"smiles": "COc1ccc(-c2nn3c(NCc4ccccc4)cc(C)nc3c2C)cc1OC", "% Inhibition": -12, "Z score": 2.33}, {"smiles": "CCC(=O)N1CCN(C(=O)CC[C@H]2CCC(=O)N2)C1", "% Inhibition": -8, "Z score": 0.81}, {"smiles": "Cc1ncsc1CCC(=O)N(Cc1ccccc1)[C@H]1CCCC[C@@H]1O", "% Inhibition": -9, "Z score": 1.23}]}]}
